The whole screen tested about 220,000 compounds, of which about 16,000 (7.3%) were called active. Inconclusive means that the source gave no clear call. Such entries were picked first, then a sample of the others. The call rests on the fitted dose curve; in most records, active means well fitted inhibition curve with a large enough effect (not every such curve was filed as active); inconclusive means small, poorly fitted or top-dose-only effect, or another doubt; inactive means no such curve, though single readings can be large or run the other way. No potency is given beside an inconclusive call; the fits are too rough.
Target: Aldehyde dehydrogenase 1A1 (Homo sapiens) (UniProt P00352)
Assay: qHTS Assay for Inhibitors of Aldehyde Dehydrogenase 1 (ALDH1A1);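 on activity, negative = inhibition: plate controls were no enzyme wells and a reference inhibitor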
Conditions: Purified ALDH1A1, NADH fluorescence, propionaldehyde substrate; series mostly up to 75.3 µM
Potency means the concentration at half of the fitted maximal effect; tags describe the fitted curve by direction and shape.

UniProt P00352, sequence (P00352 whole entry, looked up): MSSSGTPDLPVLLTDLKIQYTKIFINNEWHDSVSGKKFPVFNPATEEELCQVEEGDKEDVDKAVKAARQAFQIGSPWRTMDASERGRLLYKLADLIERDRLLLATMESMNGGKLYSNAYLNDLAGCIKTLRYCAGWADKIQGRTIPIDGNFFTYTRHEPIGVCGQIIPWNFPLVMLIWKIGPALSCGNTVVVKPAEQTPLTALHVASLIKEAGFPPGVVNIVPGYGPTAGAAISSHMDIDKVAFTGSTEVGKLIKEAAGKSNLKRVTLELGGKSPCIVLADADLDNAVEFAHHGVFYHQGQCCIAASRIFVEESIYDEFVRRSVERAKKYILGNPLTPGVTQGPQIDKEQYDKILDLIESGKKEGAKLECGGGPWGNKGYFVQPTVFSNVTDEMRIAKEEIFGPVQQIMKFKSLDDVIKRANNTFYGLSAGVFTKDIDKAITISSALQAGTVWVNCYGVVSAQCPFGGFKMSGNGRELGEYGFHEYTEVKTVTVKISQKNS

SMILES	Potency	activity, negative = inhibition
CCOc1cc(NC(=S)NCC2CCCO2)c(OCC)cc1NC(=O)c1ccccc1C (stereo not drawn)	inactive	
COc1ccc2c(c1)cc1n2CCN=C1NCCO	inconclusive [inhibitor, single point]	
COc1ccc(N/C(C)=C2/C(=O)C(=O)N(CCO)C2c2ccc([N+](=O)[O-])cc2)cc1 (stereo not drawn)	active: 11.2 µM	
O=C(/C=C/c1ccco1)N/C(=C\c1ccccc1)C(=O)NCCc1nc2ccccc2[nH]1	inactive	
CCn1ncc(C(=O)Nc2ccc(S(=O)(=O)N3CCCC3)cc2)c1C	inconclusive [inhibitor, single point]	
Cc1ccc(Sc2nc(C)cc(C)c2S(C)(=O)=O)cc1	inconclusive [inhibitor, single point]	
COc1ccc(-c2nc3c(c4c2C[C@H](c2ccccc2)OC4)CN(S(=O)(=O)c2c(C)noc2C)CC3)c(C)c1	active: 0.447 µM	
COc1cccc(/C=N/NC(=O)c2cc3c(OC)cccc3[nH]2)c1OC	inactive	
Cc1nn(C)c(C)c1/C=C/C(=O)O	inactive	
O=C(C1=C(O)C(=O)N(c2ncccn2)C1c1ccc(Cl)cc1)c1ccco1 (stereo not drawn)	inconclusive [inhibitor, single point]	
Cc1cc(C(=O)CSc2nnc(-c3ccccc3)n2C)c(C)n1C	inconclusive [inhibitor, partial curve]	
Cc1ccc(NC(=S)NC(=O)c2ccc(F)cc2)cc1S(=O)(=O)Nc1ccccc1Cl	active: 12.6 µM	
CC(C)(C)NC(=O)C(c1ccncc1)N(Cc1ccc(F)cc1)C(=O)c1ccc(-c2ccccc2)[nH]1 (stereo not drawn)	inconclusive [inhibitor, partial curve]	
c1cnc(N2CCSCC2)nc1	inactive	
C=CCOc1ccc(/C=N/O)cc1Cl	inactive	
Clc1ss/c(=N\c2ccccn2)c1Cl	inconclusive [inhibitor, partial curve]	
Cc1ccccc1Nc1oc(-c2ccccc2)nc1-c1ccccc1	inconclusive [inhibitor, partial curve]	
C=CCC(O)c1ccccc1 (stereo not drawn)	inactive	
CCN(CC)C(=O)CSc1nc2ccc(NC(=O)CSc3nnc(COc4ccccc4C)n3C)cc2s1	inconclusive [inhibitor, single point]	
CC(C)=NO[C@@H](C)CN1CCCc2nc(C)c(C)cc21	inconclusive [inhibitor, partial curve]	
CC[C@@H](NS(=O)(=O)c1ccc(C)cc1)C(=O)Oc1ccc2c3c(c(=O)oc2c1)CCC3	inconclusive [inhibitor, partial curve]	
O=C(O)c1ccccc1C(=O)c1ccc(Oc2ccccc2)cc1	inactive	
COc1ccc(N2C=C3C(=O)C(C)(OC(=O)CCc4ccccc4)C(=O)C=C3C=C2c2ccc(C#N)cc2)cc1 (stereo not drawn)		inactive: 2.86% [at 13.5 µM]
O=C(NCCc1c[nH]c2ccccc12)C1CCN(S(=O)(=O)c2ccccc2F)CC1	inconclusive [inhibitor, partial curve]	
Cc1ccc(-c2nc(CS(=O)CC(=O)N3CCN(c4ncccn4)CC3)c(C)o2)cc1 (stereo not drawn)	inconclusive [inhibitor, partial curve]	

SMILES	Potency	activity, negative = inhibition
CCOC(=O)c1c(C)n(C)c2ccc(OC(C)=O)cc12	inactive	
Clc1ccc(NCn2cncn2)nc1	active: 18.9 µM	
CC1CCN(c2nc(-c3ccco3)c3c(c2C#N)CC(C)(C)OC3)CC1	inconclusive [inhibitor, partial curve]	
Cc1cc(N2CCN(C3CCCCC3)CC2)n2nc(C)nc2n1	inactive	
CCCC(C)NC(=O)c1cc(C(=O)OC)cc([N+](=O)[O-])c1 (stereo not drawn)	inactive	
CCC(C)(C)n1nnnc1C(C(C)C)N(Cc1ccco1)Cc1cc2cc3c(cc2[nH]c1=O)OCO3 (stereo not drawn)	inconclusive [inhibitor, single point]	
CSc1nc2ccccc2cc1/C=C(\C#N)c1cccc(C)c1	inconclusive [inhibitor, single point]	
CC(=O)OCC(=O)Nc1ccc([N+](=O)[O-])cc1Cl	inactive	
CN(C)/C=C/C(=O)c1ccc(-c2ccc(Cl)cc2Cl)o1	inconclusive [inhibitor, partial curve]	
Cc1ccc(/C=C/c2ccc(=O)n(Cc3ccc(F)cc3)n2)cc1	inconclusive [inhibitor, single point]	
COC(=O)c1coc(-c2ccc(OC)cc2)c1C(=O)OC	inconclusive [inhibitor, single point]	
CC1C/C(=C/c2cccn2C)C(=O)/C(=C/c2cccn2C)C1 (stereo not drawn)	active: 3.55 µM	
CC(Sc1nc(N)c2c3c(sc2n1)CSC(C)(C)C3)C(=O)Nc1ccccc1 (stereo not drawn)	inactive	
COC(=O)c1ccc(Oc2ccc(C(C)(C)C)cc2)c([N+](=O)[O-])c1	inconclusive [inhibitor, partial curve]	
COc1nc(-c2ccccc2)ccc1-c1noc(-c2ccco2)n1	inconclusive [inhibitor, single point]	
CN(C1CCCCC1)S(=O)(=O)c1ccccc1	inconclusive [inhibitor, partial curve]	
COc1ccc(C(=O)NC(CC(=O)O)c2cc([N+](=O)[O-])ccc2Cl)c(SC)c1 (stereo not drawn)	active: 8.91 µM	
COc1cc2c(cc1OC)C(CC#N)=NC(C)(C)C2	active: 2 µM	
CCOC(=O)c1cnc(SC2CC(=O)N(c3ccc(C)cc3)C2=O)nc1N (stereo not drawn)	inconclusive [inhibitor, single point]	
COc1ccccc1CC(=O)Nc1cccc(C(=O)NN2C(=O)c3ccccc3C2=O)c1	inconclusive [inhibitor, single point]	
N#C/C(=C/c1ccc(O)c(O)c1)C(=O)OC/C=C/c1ccccc1	active: 4.47 µM	
COc1ccc(-n2nnnc2SCC(=O)c2cc3ccccc3o2)cc1	inconclusive [inhibitor, single point]	
COc1cc(/C=N/Nc2nnc3c(n2)[nH]c2ccccc23)ccc1O	inactive	
O=C(c1sc2ccccc2c1Cl)N1CCN(c2ccc(F)cc2)CC1	inconclusive [inhibitor, partial curve]	
OCc1ncccc1O	inconclusive [inhibitor, single point]	

SMILES	Potency	activity, negative = inhibition
CN=C(C)c1c(O)c2ccccc2oc1=O	inconclusive [inhibitor, single point]	
CCN1C(=O)/C(=C/C=C2\C=CN(CC)c3ccccc32)SC1=S	inconclusive [inhibitor, partial curve]	
Cc1cccc2sc(NC(=O)c3ccc(OCC4CCCO4)cc3)nc12 (stereo not drawn)	inconclusive [inhibitor, single point]	
O=C(O)CC1=C(O)C(=O)N(c2ccccc2)C1c1ccccc1 (stereo not drawn)	active: 6.31 µM	
Cc1cc(C(=O)Nc2ccc(S(=O)(=O)Nc3nccs3)cc2)c(C)o1	inconclusive [inhibitor, partial curve]	
COCCCN1C(=O)c2ccc(C(=O)Nc3cccc(OC)c3)cc2C1=O	active: 1.58 µM	
Cc1cc(-c2nc(C)c(-c3nnc(SCC(=O)Nc4ccccc4)n3C)s2)no1	inconclusive [inhibitor, partial curve]	
CCOC(=O)N1CCN(C(=O)CSCC(=O)Nc2nc(-c3ccccc3)cs2)CC1	inactive	
O=C(Cn1cc([N+](=O)[O-])cn1)Nc1ccn(Cc2c(F)c(F)c(F)c(F)c2F)n1	inactive	
CCCCCSc1nc2c(cnn2-c2ccccc2)c(=O)[nH]1	inactive	
CCCCn1cnc2c(c1=O)c1nc3ccccc3nc1n2Cc1ccc2c(c1)OCO2	inconclusive [inhibitor, partial curve]	
CCOc1ccc(CN2CCNC(=O)C2CC(=O)NCCC2=CCCCC2)cc1 (stereo not drawn)	inconclusive [inhibitor, single point]	
CCn1c(SCC(=O)Nc2cccc(C)c2)nc2nc3c(cc2c1=O)COC(C)(C)C3	inconclusive [inhibitor, single point]	
COc1ccc(C2=Nc3cccc4cccc(c34)N2)cc1	inconclusive [inhibitor, single point]	
CCCc1nc(N2CCOCC2)c2sc(=S)n(-c3ccccc3)c2n1	active: 10 µM	
C=CCn1c2ccccc2c2nnc(SCC(=O)NC(C(=O)OC)C(C)C)nc21 (stereo not drawn)	active: 20 µM	
CCN(CC)S(=O)(=O)c1cc(C)ccc1NC(=S)Nc1cccnc1	inconclusive [inhibitor, single point]	
S=C(Cc1ccc(Cl)cc1)N1CCOCC1	inconclusive [inhibitor, single point]	
COc1cc(OC)c2c(-c3cccc(-c4ccc(OC)c(F)c4)c3)cc(=O)oc2c1	inconclusive [inhibitor, single point]	
COc1cccc(C(c2nnnn2CCc2ccccc2)N2CCN(c3ccccc3)CC2)c1OC (stereo not drawn)	inconclusive [inhibitor, single point]	
Cc1ccc(S(=O)(=O)N2CCCCC2)cc1NC(=O)COC(=O)Cc1cccc2ccccc12	inconclusive [inhibitor, single point]	
CCCCn1nc2cc(C(=O)NCc3ccc(OC(F)(F)F)cc3)ccc2c1OC	inconclusive [inhibitor, single point]	
COc1cc(NC(=O)Cn2nc(-c3ccc(F)cc3)ccc2=O)ccc1-n1cnnn1	inconclusive [inhibitor, partial curve]	
